Laboratory results as given in patent US20210363269A1 (ALX ONCOLOGY, published 2021).
Residue numbers refer to the chain shown, from its start.

T1: cynomolgus SIRP-α D1 domain (cyno2) (cynomolgus monkey, UniProt Q5TFQ8 30-148 (human entry), limits assumed)
T1 chain: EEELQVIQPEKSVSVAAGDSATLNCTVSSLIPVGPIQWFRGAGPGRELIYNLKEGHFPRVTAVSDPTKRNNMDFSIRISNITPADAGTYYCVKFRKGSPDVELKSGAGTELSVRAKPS

T2: high affinity SIRP-α D1 variant CV1-3
T2 chain: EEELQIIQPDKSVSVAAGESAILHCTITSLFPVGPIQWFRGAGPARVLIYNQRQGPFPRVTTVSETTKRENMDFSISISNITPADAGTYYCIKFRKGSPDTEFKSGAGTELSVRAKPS

T3: cynomolgus SIRP-α D1 domain (cyno1) (cynomolgus monkey, UniProt Q5TFQ8 30-148 (human entry), limits assumed)
T3 chain: T1 chain with D19E, V27A, S28T, A42V, N51H, L52Q, A62P

T4: NOD mouse SIRP-α D1 domain (mouse (NOD strain))
T4 chain: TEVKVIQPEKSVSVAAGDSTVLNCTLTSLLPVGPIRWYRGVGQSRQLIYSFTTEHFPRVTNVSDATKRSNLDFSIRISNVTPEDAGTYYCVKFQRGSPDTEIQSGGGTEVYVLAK

T5: mouse 129 SIRP-α D1 domain (mouse (129 strain), UniProt P97797 32-150)
T5 construct: also called m129
T5 chain: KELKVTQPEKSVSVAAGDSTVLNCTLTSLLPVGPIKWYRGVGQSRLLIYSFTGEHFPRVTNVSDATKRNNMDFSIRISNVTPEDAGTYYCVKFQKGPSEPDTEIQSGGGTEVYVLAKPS

T6: C57BL/6 mouse SIRP-α D1 domain (mouse (C57BL/6 strain), UniProt P97797 32-148)
T6 sequence: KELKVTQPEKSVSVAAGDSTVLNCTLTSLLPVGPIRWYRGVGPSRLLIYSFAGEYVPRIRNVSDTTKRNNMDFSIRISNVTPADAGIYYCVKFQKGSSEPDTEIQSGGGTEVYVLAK

B1: S115 (scFv)
scFv: ETVLTQSPATLSVSPGERATLSCRASQTVGSKLAWHQQKPGQAPRLLIYDATNRATGISDRFSGSGSGTDFTLTISSLQTEDSAVYYCQQYYYWPPYRFGGGTKVEIKGQSSRSSGGGGSSGGGGSDVQLVESGGGVVRPGESLRLSCAASGFSFSSYAMNWVRQAPGEGLEWVSRINSGGGGTDYAESVKGRFTISRDNSENTLYLQMNSLRAEDTAVYYCAKQYDWNSFFDYWGLGALVTVSSSL[letters of human IgG1 Fc with C220S (EU numbers) and a few adjoining residues left out]
B2: S116 (scFv)
scFv: ETVLTQSPATLSVSPGERATLSCRASQTVGSKLAWHQQKPGQAPRLLIYDATNRATGISDRFSGSRSGTDFTLTISSLQTEDSAVYYCQQYYYWPPYRFGGGTKVEIKGQSSRSSGGGGSSGGGGSDVQLVESGGGVVRPGESLRLSCAASGFSFSSYAMNWVRQAPGEGLEWVSRINSGGGGTDYAESVKGRFTISRDNSENTLYLQMNSLRAEDTAVYYCAKQYDWNSFFDYWGLGALVTVSSSL[letters of human IgG1 Fc with C220S (EU numbers) and a few adjoining residues left out]
B3: S117 (scFv)
scFv: ETVLTQSPATLSVSPGERATLSCRASQTVGSKLAWHQQKPGQAPRLLIYDATNRATGIPDRFSGSGSGTDFTLTISSLQTEDSAVYYCQQYYYWPPYRFGGGTKVEIKGQSSRSSGGGGSSRGGGSDVQLVESGGGVVRPGESLRLSCAASGFSFSSYAMNWVRQAPGEGLEWVSRINSGGGGTDYAESVKGRFTISRDNSENTLYLQMNSLRAEDTAVYYCAKQYDWNGFFDYWGLGALVTVSSSL[letters of human IgG1 Fc with C220S A231V (EU numbers) and a few adjoining residues left out]
B4: S135 (scFv)
scFv: EIVLTQSPATLSVSPGERVTFSCRASQNVRSDIAWYQQKPGQAPRLLIYAASSRDTGIPDRFSGSGSGTDFTLTISSLQSEDFGVYYCQQYYDWPPFTFGGGTKVEIKGQSSRSSGGGGSSGGGGSDVQLVESGGGVVRPGESLRLSCAASGFSFSIYAMSWVRQAPGEGLEWVSTIGADDTYYADSVKGRFTISRDNSKNTLYLQMNSLRAEDTAVYYCAKDSTVGWSGDFFDYWGLGTLVTVSSSL[letters of human IgG1 Fc with C220S (EU numbers) and a few adjoining residues left out]

What follows are binders tested against T7, human SIRPγ isoform 1 (human, UniProt Q9P1W8 29-147) (assay: SPR, Langmuir fit).
T7 construct: also called SIRPg; sirpg
Outline: (§1)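 Pre-filtered culture media supplied the scFv-Fc antibody clones, which were captured by anti-human IgG Fc amine-coupled (about 4000 RU) to a GLC chip on a ProteOn XPR36. SIRP analytes were flowed in PBS pH 7.4 with 0.01% Tween-20 at 25° C. Interspot and buffer-blank responses were subtracted from the data, which were then fitted to a 1:1 Langmuir model. Dissociation rate constants (koff) were derived from this fitting.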

T7 sequence (Q9P1W8 29-147 limits assumed): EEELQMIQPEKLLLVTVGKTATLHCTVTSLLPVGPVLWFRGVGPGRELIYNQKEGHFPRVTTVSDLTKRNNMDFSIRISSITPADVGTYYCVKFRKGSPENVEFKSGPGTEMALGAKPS

| Binder | koff [s⁻¹] |
| --- | --- |
| B1 | 3.34e-05 |
| B2 | 8.25e-05 |
| B3 | 4.3e-06 |
| B4 | 0.00146 |

Each binder was assayed against T8, human SIRP-α v1 D1 domain (human, UniProt P78324 31-149) (assay: SPR, Langmuir fit).
T8 construct: also called human v1
Outline: as §1

T8 sequence (P78324 31-149 limits assumed): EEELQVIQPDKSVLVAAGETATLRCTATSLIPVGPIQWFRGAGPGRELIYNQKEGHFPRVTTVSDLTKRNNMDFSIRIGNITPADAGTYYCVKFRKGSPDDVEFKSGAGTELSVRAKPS

| Binder | koff [s⁻¹] |
| --- | --- |
| B1 | 7.86e-06 |
| B2 | 2.84e-05 |
| B3 | 1.2e-05 |
| B4 | 0.000658 |

Target: T1, cynomolgus SIRP-α D1 domain (cyno2)
Test: SPR, Langmuir fit
Outline: as §1

| Binder | koff [s⁻¹] |
| --- | --- |
| B1 | 6.91e-05 |
| B2 | 0.00012 |
| B3 | 5.92e-05 |
| B4 | 0.000388 |

Target: T2, high affinity SIRP-α D1 variant CV1-3
Test: SPR, Langmuir fit
Outline: as §1

| Binder | koff [s⁻¹] |
| --- | --- |
| B1 | 0.000484 |
| B2 | 0.00048 |
| B3 | 0.000275 |
| B4 | 0.00363 |

Each binder was assayed against T9, human SIRPβ isoform 1 (human, UniProt O00241 30-148) (assay: SPR, Langmuir fit).
T9 construct: also called SIRPb; sirpb1
Outline: as §1

T9 sequence (O00241 30-148 limits assumed): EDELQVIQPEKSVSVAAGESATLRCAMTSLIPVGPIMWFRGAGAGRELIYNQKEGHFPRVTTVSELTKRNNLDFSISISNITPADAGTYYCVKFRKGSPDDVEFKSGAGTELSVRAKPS

| Binder | koff [s⁻¹] |
| --- | --- |
| B1 | 3.69e-05 |
| B2 | 3.09e-05 |
| B3 | 3.54e-05 |
| B4 | 0.000521 |

Target: T3, cynomolgus SIRP-α D1 domain (cyno1)
Test: SPR, Langmuir fit
Outline: as §1

| Binder | koff [s⁻¹] |
| --- | --- |
| B1 | 2.22e-05 |
| B2 | 7.01e-05 |
| B3 | 1.83e-05 |
| B4 | 0.000473 |

Each binder was assayed against T10, human SIRP-α v2 D1 domain (human) (assay: SPR, Langmuir fit).
T10 construct: also called human v2
Outline: as §1

| Binder | koff [s⁻¹] |
| --- | --- |
| B1 | 1.95e-05 |
| B2 | 5.07e-05 |
| B3 | 3.4e-05 |
| B4 | 8.78e-05 |

Target: T4, NOD mouse SIRP-α D1 domain
Test: SPR
Outline: as §1

| Binder | binding result |
| --- | --- |
| B1 | no binding (tested: Koff > 5 × 10^3 (legend)) |
| B2 | no binding (tested: Koff > 5 × 10^3 (legend)) |
| B3 | no binding (tested: Koff > 5 × 10^3 (legend)) |
| B4 | no binding (tested: Koff > 5 × 10^3 (legend)) |

Target: T5, mouse 129 SIRP-α D1 domain
Test: SPR
Outline: as §1

| Binder | binding result |
| --- | --- |
| B1 | no binding (tested: Koff > 5 × 10^3 (legend)) |
| B2 | no binding (tested: Koff > 5 × 10^3 (legend)) |
| B3 | no binding (tested: Koff > 5 × 10^3 (legend)) |
| B4 | no binding (tested: Koff > 5 × 10^3 (legend)) |

What follows are binders tested against T6, C57BL/6 mouse SIRP-α D1 domain (assay: SPR).
Outline: as §1

| Binder | binding result |
| --- | --- |
| B1 | no binding (tested: Koff > 5 × 10^3 (legend)) |
| B2 | no binding (tested: Koff > 5 × 10^3 (legend)) |
| B3 | no binding (tested: Koff > 5 × 10^3 (legend)) |
| B4 | no binding (tested: Koff > 5 × 10^3 (legend)) |
